{"source": "paper PMC4336329", "about": "(PLoS ONE, 2015)", "note": "The whole screen tested about 310,000 compounds, of which about 2,200 (0.71%) showed an effect of 50% or more. Effects have a minus sign here. The list shows a part of the results.", "data": [{"target": "human ether-à-go-go-related gene (hERG) potassium channel (human, UniProt Q12809)", "sequence (Q12809 whole entry, looked up)": "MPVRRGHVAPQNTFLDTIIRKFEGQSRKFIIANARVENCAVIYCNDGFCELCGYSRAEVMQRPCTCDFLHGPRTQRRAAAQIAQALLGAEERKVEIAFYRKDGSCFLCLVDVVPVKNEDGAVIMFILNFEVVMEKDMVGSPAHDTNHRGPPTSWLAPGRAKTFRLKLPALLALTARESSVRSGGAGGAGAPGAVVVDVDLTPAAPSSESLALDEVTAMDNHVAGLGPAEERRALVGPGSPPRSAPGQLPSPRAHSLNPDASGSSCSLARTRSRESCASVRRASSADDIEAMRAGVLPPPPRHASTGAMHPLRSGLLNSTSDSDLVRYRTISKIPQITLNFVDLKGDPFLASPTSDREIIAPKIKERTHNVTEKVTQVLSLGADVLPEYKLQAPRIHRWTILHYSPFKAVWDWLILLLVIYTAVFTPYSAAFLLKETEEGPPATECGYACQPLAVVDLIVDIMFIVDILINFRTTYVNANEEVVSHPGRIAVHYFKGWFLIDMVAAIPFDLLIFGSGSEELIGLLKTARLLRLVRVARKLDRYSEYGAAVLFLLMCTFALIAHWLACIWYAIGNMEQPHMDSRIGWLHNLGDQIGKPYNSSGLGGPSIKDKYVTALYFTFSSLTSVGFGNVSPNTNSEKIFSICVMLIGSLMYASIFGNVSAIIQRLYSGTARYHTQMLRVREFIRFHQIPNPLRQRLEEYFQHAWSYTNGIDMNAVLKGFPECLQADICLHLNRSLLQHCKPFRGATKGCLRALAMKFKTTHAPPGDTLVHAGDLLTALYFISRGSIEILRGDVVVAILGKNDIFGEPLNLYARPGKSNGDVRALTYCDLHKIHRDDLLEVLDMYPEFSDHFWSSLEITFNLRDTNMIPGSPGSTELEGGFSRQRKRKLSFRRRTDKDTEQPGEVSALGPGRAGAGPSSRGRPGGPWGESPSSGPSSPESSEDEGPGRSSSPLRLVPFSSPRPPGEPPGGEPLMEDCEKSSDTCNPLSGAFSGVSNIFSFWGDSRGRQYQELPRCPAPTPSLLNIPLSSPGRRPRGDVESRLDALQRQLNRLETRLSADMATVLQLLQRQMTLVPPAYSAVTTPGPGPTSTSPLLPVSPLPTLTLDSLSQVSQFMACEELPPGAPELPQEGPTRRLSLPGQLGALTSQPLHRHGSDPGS", "experiment": "primary screen, population patch clamp on CHO cells stably expressing hERG", "units": {"hERG current change (%, negative = inhibition) at 1uM": "%"}, "values": [{"smiles": "Cc1cc(C)n2nc(SCC3COc4ccccc4O3)nc2n1", "note": "(centres unmarked)", "hERG current change (%, negative = inhibition) at 1uM": 5.88}, {"smiles": "Cc1c(F)cccc1NS(=O)(=O)c1ccc2c(c1)c(=O)n(C)c(=O)n2C", "hERG current change (%, negative = inhibition) at 1uM": -0.593}, {"smiles": "CC1(c2nnc(-c3ccc(F)cc3)o2)CC(c2ccc([N+](=O)[O-])cc2)=NO1", "note": "(centres unmarked)", "hERG current change (%, negative = inhibition) at 1uM": -12.8}, {"smiles": "c1ccc(-c2nc3ccccc3nc2-c2ccccn2)nc1", "hERG current change (%, negative = inhibition) at 1uM": -2.03}, {"smiles": "CS(=O)(=O)N(CC(=O)N/N=C/c1ccccn1)c1ccc(Oc2ccccc2)cc1", "hERG current change (%, negative = inhibition) at 1uM": 3.39}, {"smiles": "COC(=O)c1c(-c2ccccc2)csc1N", "hERG current change (%, negative = inhibition) at 1uM": 5.93}, {"smiles": "COc1cccc(C(=O)NCC(=O)N2CCC3(CC2)NCCc2[nH]cnc23)c1", "hERG current change (%, negative = inhibition) at 1uM": 7.34}, {"smiles": "CCN(CC)S(=O)(=O)c1ccc(N2CCOCC2)c(NC(=O)C2CCCC2)c1", "hERG current change (%, negative = inhibition) at 1uM": 4.5}, {"smiles": "CCOc1ccc(S(=O)(=O)Nc2cc(OC)c(OC)cc2C(=O)O)cc1", "hERG current change (%, negative = inhibition) at 1uM": 3.61}, {"smiles": "Cc1cccc(C)c1NC(=O)CN(C)C(=O)c1cc(S(=O)(=O)N(C)C)ccc1N1CCCC1", "hERG current change (%, negative = inhibition) at 1uM": 16.1}, {"smiles": "COC(=O)C1C(=O)c2c(C)noc2CC1(C)C", "note": "(centres unmarked)", "hERG current change (%, negative = inhibition) at 1uM": 16.8}, {"smiles": "CC(C)c1ccc(/C=C2\\NC(=O)NC2=O)cc1", "hERG current change (%, negative = inhibition) at 1uM": 13.1}, {"smiles": "O=C1CCc2cc(S(=O)(=O)N3CCCCC3)cc3c2N1CCC3", "hERG current change (%, negative = inhibition) at 1uM": 11.3}, {"smiles": "CC1(NC(=O)c2cc(-c3cccs3)nn2-c2ccccc2)CCS(=O)(=O)C1", "note": "(centres unmarked)", "hERG current change (%, negative = inhibition) at 1uM": 11.1}, {"smiles": "CCN(CC)C(=O)c1cn(C)c2ccc(S(=O)(=O)N(CC)CC)cc2c1=O", "hERG current change (%, negative = inhibition) at 1uM": 4.7}, {"smiles": "Cc1cc(OC(=O)c2ccc(S(=O)(=O)N(C)C)cc2)cc(=O)o1", "hERG current change (%, negative = inhibition) at 1uM": 7.63}, {"smiles": "COC(=O)c1c(SCc2ccc(C#N)cc2)nc(=O)[nH]c1C", "hERG current change (%, negative = inhibition) at 1uM": -40.7}, {"smiles": "COC(=O)[C@]1(Cc2ccccc2)N[C@H](c2ccc(-c3ccc(Cl)c(Cl)c3)cc2)[C@@H]2C(=O)N(C)C(=O)[C@@H]21.O=C(O)C(F)(F)F", "hERG current change (%, negative = inhibition) at 1uM": 9.68}, {"smiles": "Cc1cc(S(=O)(=O)Nc2ccc(C(=O)NCCCn3ccnc3)cc2)ccc1F", "hERG current change (%, negative = inhibition) at 1uM": 10.4}, {"smiles": "Nc1nc2n(n1)C(c1ccccc1Cl)CC(c1ccc(F)cc1)N2", "note": "(centres unmarked)", "hERG current change (%, negative = inhibition) at 1uM": 1.25}, {"smiles": "O=C(Cc1ccccc1)NC(NC(=S)Nc1cc(Cl)ccc1Cl)C(Cl)(Cl)Cl", "note": "(centres unmarked)", "hERG current change (%, negative = inhibition) at 1uM": 14.1}, {"smiles": "CC(=O)Nc1ccc(CCc2nc3ccccc3[nH]2)cc1", "hERG current change (%, negative = inhibition) at 1uM": 8.34}, {"smiles": "CCc1ccc(CN2CCCC(CNC(=O)c3cccc(OC)c3OC)C2)cc1", "note": "(centres unmarked)", "hERG current change (%, negative = inhibition) at 1uM": -7.29}]}]}
